US20250223331A1, “GLP-1/GIP DUAL-TARGETED POLYPEPTIDE AND FUSION PROTEIN AND APPLICATIONS THEREOF” (SUNSHINE LAKE PHARMA CO., LTD., priority 2021, published 2025)

How the values were obtained:
GIPR = target: T1, GIPR (UniProt P48546 22-466, limits assumed); assay: cell-based or functional assay
T1 sequence (looked up): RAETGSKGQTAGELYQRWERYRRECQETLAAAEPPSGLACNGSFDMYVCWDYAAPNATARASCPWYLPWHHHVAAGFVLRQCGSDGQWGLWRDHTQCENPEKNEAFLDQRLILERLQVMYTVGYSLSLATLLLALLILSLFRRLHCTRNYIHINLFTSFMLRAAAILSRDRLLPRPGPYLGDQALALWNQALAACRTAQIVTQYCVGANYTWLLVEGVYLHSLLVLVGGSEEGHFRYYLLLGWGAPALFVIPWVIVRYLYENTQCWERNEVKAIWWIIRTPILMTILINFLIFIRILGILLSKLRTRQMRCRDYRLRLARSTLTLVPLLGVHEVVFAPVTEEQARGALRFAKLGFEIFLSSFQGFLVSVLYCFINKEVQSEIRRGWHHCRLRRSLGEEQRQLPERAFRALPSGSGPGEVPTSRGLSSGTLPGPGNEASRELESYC

GLP-1R = GLP-1R (UniProt P43220); assay: cell-based or functional assay
DIO mice = assay: in vivo efficacy in DIO model: body weight, food intake, liver, blood biochemistry
Source text: Experimental methods: C57/BL6 mice were randomly divided into normal group NFD and model group HFD at the fifth week of age, and the normal group was fed with ordinary maintenance diet, while the model group was fed with high-fat diet D12492. Changes in body weight and food intake in mice were monitored every 3 weeks. After 16 weeks of feeding, the body weight of mice in the model group and the normal group were (47.9±3.4) g and (29.6±1.5) g, respectively, and the difference between the two groups was statistically significant. The normal group was divided into the control group, and the model group mice that were successfully modeled were divided into Vehicle group, Semaglutide group, HEC-G115 group and HEC-G124 group, with 10 mice in each group. For the groups of Semaglutide, HEC-G115 and HEC-G124, the corresponding drug was injected subcutaneously in each group, and PBS was injected subcutaneously in the Vehicle group. […] Weight and food intake were measured before each dose. After 3 weeks of administration, an intraperitoneal glucose tolerance test was performed. After 72 h of the last administration, samples were collected, liver weight was recorded, and liver pathological status and blood biochemical indexes were detected in each group.

GLP-1R or GIPR = assay: in vitro agonistic activity of fusion proteins, summary statement; type: cell-based; details: cAMP, GLP-1R / GIPR cells
Method: The digested product was electrophoresed on 1% agarose gel and the target band was cut out with a clean blade, then a gel recovery kit was used to recover the target fragment. The specific experimental operations are carried out according to the kit instructions; • 3) The target fragment enzymatic digestion recovery product and vector plasmid pcDNA3.1 fragment were connected through T4 ligase and transformed into DH5a competent cells, then single colonies were isolated by spreading on plates, and the transformants were selected and expanded for enzyme digestion verification and sequencing verification. • 4) 200 mL of the bacterial liquid obtained in inoculation step 3) and verified by sequencing to contain the fusion protein of the target product was used for plasmid extraction. The kit used was PureLink HiPure Plasmid Maxiprep Kit, and according to the instructions. After the plasmid was verified to be correct by PCR and enzyme digestion, pvuI restriction enzyme was used for linearization. Finally, the ethanol precipitation method was used to recover the plasmid. • 5) The host cells were HEK293, one day before transfection, the cells were spread into a 6-well plate at a density of 2×10^6 cells/well, and the addition volume was 1 mL/well. The recovered linearized plasmid was transfected into HEK293 cells using Lipofectamine 3000 transfection method, then G418 was added to screen to obtain mixed strains, single clones were obtained by limiting dilution and isolation, and the activity was tested and verified.
The cAMP produced by the recipient cells was detected by a cAMP detection kit (Cisbio, 62AM6PEC) according to the steps described in the operating instructions. […] If the mixture was not completely melted within 1.5 min, the cells were added dropwise to a 15 mL centrifuge tube containing 8 mL warm culture medium on a clean bench, then centrifuged at 900 rpm for 5 min, the supernatant was discarded, and the cells were re-suspended with 1 mL complete culture medium (15 times by pipetting).

normal C57BL/6 mice = assay: glucose tolerance in normal C57BL/6 mice (Example 8); type: in vivo; details: for Blood glucose value 0 min / Blood glucose value 15 min / Blood glucose value 30 min / Blood glucose value 60 min / Blood glucose value 90 min: 3 nmol/kg s.c. single dose, 72 h after dose, 2 g/kg glucose i.p.; for effect on blood glucose levels: normal C57 mice after a single dose for 72 h
Method: Experimental methods: Normal C57BL/6 mice were randomly divided into 6 groups (Vehicle group, Dulaglutide group, HEC-G113 group, HEC-G122 group, HEC-G126 group, HEC-G127 group) according to blood glucose and body weight, with 8 mice in each group. For the groups of Dulaglutide (Dulaglutide purchased from Eli Lilly, lot number was D256504), HEC-G113, HEC-G122, HEC-G126 and HEC-G127, the corresponding drug was injected subcutaneously into the mice at a dose of 3 nmol/kg, and for the control group, the corresponding vehicle was injected subcutaneously.
After 60 h of single administration, the mice were fasted for 12 h and drank water freely. Blood was collected from the tail vein to measure the basal blood glucose value of each group, then 2 g/kg of glucose solution was injected intraperitoneally, and blood glucose was measured at 15, 30, 60, 90 and 0 min after glucose administration. According to the blood glucose values measured at different time points, the blood glucose concentration-time curve was plotted, and the AUC0˜90min of each dose group was calculated, and the experimental results are shown in Table 7 and FIGS. 3-4

[1] = long-term administration 10 nmol/kg s.c., 72 h after last administration
[2] = long-term administration 10 nmol/kg s.c., blood biochemistry

B1: HEC-G28 (Fc fusion)
chain: YGEGTFTSDYSIYLDKKAQRDFVQWLLAQGPSSGAPPPSGGGGSGGGGSGGGGSA[here human IgG4 Fc with S228P F234A L235A (EU numbers) without letters]
- EC50, cAMP (GIPR): 0.295 nM
- EC50, cAMP (GLP-1R): 1.97 nM

B2: HEC-G124: fusion protein of SEQ ID NO: 104 polypeptide, linker peptide and Fc fragment (protein)
chain: YSEGTFTSDYSILLDKIAQREFVQWLIAGGPSSGAPPPSGGGGSGGGGSGGGGSA[here human IgG4 Fc with S228P F234A L235A (EU numbers) without letters]
- effect on liver function and blood lipids (DIO mice): significantly improved the liver function and blood lipids
- Cumulative food intake D 7-10 (DIO mice; 10 nmol/kg s.c. repeated, D 7-10): 14.3 g/pcs
- Weight growth rate D 10 (DIO mice; 10 nmol/kg s.c. repeated, D 10): −15.5 ± 2.8%
- Cumulative food intake D 11-13 (DIO mice; 10 nmol/kg s.c. repeated, D 11-13): 19.7 g/pcs
- Weight growth rate D 13 (DIO mice; 10 nmol/kg s.c. repeated, D 13): −18.8 ± 3.9%
- Cumulative food intake D 14-16 (DIO mice; 10 nmol/kg s.c. repeated, D 14-16): 25.0 g/pcs
- Weight growth rate D 16 (DIO mice; 10 nmol/kg s.c. repeated, D 16): −19.1 ± 3.5%
- Cumulative food intake D 17-19 (DIO mice; 10 nmol/kg s.c. repeated, D 17-19): 31.3 g/pcs
- Weight growth rate D 19 (DIO mice; 10 nmol/kg s.c. repeated, D 19): −19.9 ± 4.4%
- Cumulative food intake D 20-22 (DIO mice; 10 nmol/kg s.c. repeated, D 20-22): 37.6 g/pcs
- Weight growth rate D 22 (DIO mice; 10 nmol/kg s.c. repeated, D 22): −20.0 ± 3.5%
- Cumulative food intake D 23-27 (DIO mice; 10 nmol/kg s.c. repeated, D 23-27): 47.6 ^a g/pcs
- Weight growth rate D 25 (DIO mice; 10 nmol/kg s.c. repeated, D 25): −19.2 ± 5.3^a %
- Cumulative food intake D 0 (DIO mice; 10 nmol/kg s.c., D 0): 0.4 g/pcs
- Weight growth rate D 0 (DIO mice; 10 nmol/kg s.c., D 0): 0.0 ± 0.0%
- Cumulative food intake D 1 (DIO mice; 10 nmol/kg s.c., D 1): 1.2 g/pcs
- Weight growth rate D 1 (DIO mice; 10 nmol/kg s.c., D 1): −6.0 ± 1.0%
- Cumulative food intake D 2 (DIO mice; 10 nmol/kg s.c., D 2): 2.6 g/pcs
- Weight growth rate D 2 (DIO mice; 10 nmol/kg s.c., D 2): −8.9 ± 1.2%
- Cumulative food intake D 3 (DIO mice; 10 nmol/kg s.c., D 3): 4.8 g/pcs
- Weight growth rate D 3 (DIO mice; 10 nmol/kg s.c., D 3): −9.3 ± 2.1%
- Cumulative food intake D 4 (DIO mice; 10 nmol/kg s.c., D 4): 7.2 g/pcs
- Weight growth rate D 4 (DIO mice; 10 nmol/kg s.c., D 4): −8.8 ± 3.0%
- Cumulative food intake D 5 (DIO mice; 10 nmol/kg s.c., D 5): 8.7 g/pcs
- Weight growth rate D 5 (DIO mice; 10 nmol/kg s.c., D 5): −8.3 ± 2.8%
- Cumulative food intake D 6 (DIO mice; 10 nmol/kg s.c., D 6): 11.4 g/pcs
- Weight growth rate D 6 (DIO mice; 10 nmol/kg s.c., D 6): −8.4 ± 2.6%
- Weight growth rate D 7 (DIO mice; 10 nmol/kg s.c., D 7): −7.1 ± 2.9%
- Liver (DIO mice; liver weight, long-term administration 10 nmol/kg s.c., 72 h after last administration): 0.9 ± 0.1 ^a g
- Body weight (DIO mice; [1]): 32.8 ± 2.9 ^a g
- Liver index (DIO mice; [1]): 2.8 ± 0.0 ^a %
- ALT (DIO mice; [2]): 28.3 ± 5.8 ^a U/L
- AST (DIO mice; [2]): 115.3 ± 22.6 ^a U/L
- CHOL (DIO mice; [2]): 2.6 ± 0.3^a mmol/L
- TRIGL (DIO mice; [2]): 1.0 ± 0.2 mmol/L
- weight loss and feeding inhibition effects compared with Semaglutide (DIO mice; once every three days, after 4 weeks, same dose): comparable to those of the control group Semaglutide

B3: HEC-G06: fusion protein of SEQ ID NO: 5 polypeptide, linker peptide and Fc fragment (protein)
chain: YGEGTFTSDYSIYLDKKAQRDFVEWLLAQGPSSGAPPPSGGGGSGGGGSGGGGSA[here human IgG4 Fc with S228P F234A L235A (EU numbers) without letters]
- agonistic activity in vitro (GLP-1R or GIPR): strong activity in vitro

B4: HEC-G122: fusion protein of SEQ ID NO: 102 polypeptide, linker peptide and Fc fragment (protein)
chain: YSEGTFTSDYSILLDKIAQREFIEWLIAGGPSSGAPPPSGGGGSGGGGSGGGGSA[here human IgG4 Fc with S228P F234A L235A (EU numbers) without letters]
- Blood glucose value 0 min (normal C57BL/6 mice): 4.5 ± 0.4 mM
- Blood glucose value 15 min (normal C57BL/6 mice): 7.8 ± 1.9 mM
- Blood glucose value 30 min (normal C57BL/6 mice): 6.6 ± 1.7 mM
- Blood glucose value 60 min (normal C57BL/6 mice): 5.3 ± 1.1 mM
- Blood glucose value 90 min (normal C57BL/6 mice): 4.8 ± 0.7 mM
- effect on blood glucose levels (normal C57BL/6 mice): significantly reduced the blood glucose levels

B5: HEC-G127: fusion protein of SEQ ID NO: 107 polypeptide, linker peptide and Fc fragment (protein)
chain: YSEGTFTSDYSILLDKKAQRDFIEWLLAGGPSSGAPPPSGGGGSGGGGSGGGGSA[here human IgG4 Fc with S228P F234A L235A (EU numbers) without letters]
- Blood glucose value 0 min (normal C57BL/6 mice): 4.1 ± 0.4 mM
- Blood glucose value 15 min (normal C57BL/6 mice): 7.4 ± 2.2 mM
- Blood glucose value 30 min (normal C57BL/6 mice): 7.1 ± 1.7 mM
- Blood glucose value 60 min (normal C57BL/6 mice): 5.6 ± 0.9 mM
- Blood glucose value 90 min (normal C57BL/6 mice): 4.4 ± 0.7 mM
- effect on blood glucose levels (normal C57BL/6 mice): significantly reduced the blood glucose levels

B6: HEC-G126: fusion protein of SEQ ID NO: 106 polypeptide, linker peptide and Fc fragment (protein)
chain: YGEGTFTSDYSILLDKIAQREFIEWLLAGGPSSGAPPPSGGGGSGGGGSGGGGSA[here human IgG4 Fc with S228P F234A L235A (EU numbers) without letters]
- Blood glucose value 0 min (normal C57BL/6 mice): 4.0 ± 0.4 mM
- Blood glucose value 15 min (normal C57BL/6 mice): 7.3 ± 1.0 mM
- Blood glucose value 30 min (normal C57BL/6 mice): 6.7 ± 0.7 mM
- Blood glucose value 60 min (normal C57BL/6 mice): 5.4 ± 0.7 mM
- Blood glucose value 90 min (normal C57BL/6 mice): 4.5 ± 1.0 mM
- effect on blood glucose levels (normal C57BL/6 mice): significantly reduced the blood glucose levels

B7: HEC-G29 (Fc fusion)
chain: YGEGTFTSDYSIYLDKKAQRDFIQWLLAQGPSSGAPPPSGGGGSGGGGSGGGGSA[here human IgG4 Fc with S228P F234A L235A (EU numbers) without letters]
- EC50, cAMP (GIPR): 0.163 nM
- EC50, cAMP (GLP-1R): 2.73 nM

Marks after values point to notes of the source that are not given here.
